Source: publication PMC4081100
The entries are a selection whose mix differs from that of the whole data set. For some assays here: At the low end of the ranking the order means little. The list shows a part of the results. For some assays here: The source does not settle which construct or isoform was used.

Tests used:
Experiment in all cases: universal protein binding microarray (PBM)
Settings in all cases: transcription factors of Arabidopsis thaliana; high values mean tight binding; most listed sequences are background and not binding sites; double strand, one strand shown
[1] = molecular target: GST-NTL6(1-168) (UniProt Q9SCK6)
[2] = molecular target: T1, GST-ANAC019 NAC domain (UniProt Q9C932)
T1 sequence: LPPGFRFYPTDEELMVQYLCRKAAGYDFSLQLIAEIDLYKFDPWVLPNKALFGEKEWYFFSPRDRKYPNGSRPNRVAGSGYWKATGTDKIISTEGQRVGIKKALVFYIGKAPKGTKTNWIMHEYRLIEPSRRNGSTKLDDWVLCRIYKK

[3] = molecular target: T2, GST-NAP(1-166) (UniProt O49255)
T2 sequence: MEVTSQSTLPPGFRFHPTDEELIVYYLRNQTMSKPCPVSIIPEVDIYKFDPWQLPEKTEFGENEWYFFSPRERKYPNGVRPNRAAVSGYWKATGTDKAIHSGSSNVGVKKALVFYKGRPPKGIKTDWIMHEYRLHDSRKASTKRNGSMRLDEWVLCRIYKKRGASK

[4] = molecular target: T3, GST-NTL8 NAC domain (UniProt Q9XIN7)
T3 sequence: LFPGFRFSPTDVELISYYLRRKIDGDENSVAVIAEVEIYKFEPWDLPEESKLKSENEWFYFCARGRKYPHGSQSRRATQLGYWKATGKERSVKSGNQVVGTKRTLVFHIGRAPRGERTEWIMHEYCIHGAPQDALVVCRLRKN

[5] = molecular target: T4, GST-VOZ2 (Arabidopsis thaliana) (UniProt Q9SLB9)
T4 sequence: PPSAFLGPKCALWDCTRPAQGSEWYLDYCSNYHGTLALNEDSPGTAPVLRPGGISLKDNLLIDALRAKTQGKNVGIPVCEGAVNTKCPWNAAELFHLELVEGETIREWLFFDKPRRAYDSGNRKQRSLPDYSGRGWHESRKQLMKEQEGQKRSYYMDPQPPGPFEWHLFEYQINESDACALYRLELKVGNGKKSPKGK

[6] = molecular target: GST-WRKY1(266-371) (UniProt Q9SI37)
Sequence of UniProt Q9SI37 (Q9SI37 266-371): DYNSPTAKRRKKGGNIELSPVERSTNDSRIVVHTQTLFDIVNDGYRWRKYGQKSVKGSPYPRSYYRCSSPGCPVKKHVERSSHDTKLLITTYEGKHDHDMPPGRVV

[7] = molecular target: T5, GST-ATAF1 NAC domain (UniProt Q39013)
T5 sequence: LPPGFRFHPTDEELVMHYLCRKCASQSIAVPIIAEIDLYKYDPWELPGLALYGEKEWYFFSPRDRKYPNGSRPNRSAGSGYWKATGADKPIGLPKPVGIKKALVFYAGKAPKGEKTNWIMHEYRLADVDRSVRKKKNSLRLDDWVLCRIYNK

[8] = molecular target: T6, GST-NST2(1-184) (UniProt Q9M274)
T6 sequence: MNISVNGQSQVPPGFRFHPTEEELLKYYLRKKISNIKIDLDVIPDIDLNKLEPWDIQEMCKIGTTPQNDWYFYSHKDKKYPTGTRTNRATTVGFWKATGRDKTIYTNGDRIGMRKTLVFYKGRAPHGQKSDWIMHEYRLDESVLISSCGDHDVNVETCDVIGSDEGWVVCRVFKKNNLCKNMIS

[9] = molecular target: T7, GST-ANAC092(1-285) full length (UniProt Q9FKA0)
T7 sequence: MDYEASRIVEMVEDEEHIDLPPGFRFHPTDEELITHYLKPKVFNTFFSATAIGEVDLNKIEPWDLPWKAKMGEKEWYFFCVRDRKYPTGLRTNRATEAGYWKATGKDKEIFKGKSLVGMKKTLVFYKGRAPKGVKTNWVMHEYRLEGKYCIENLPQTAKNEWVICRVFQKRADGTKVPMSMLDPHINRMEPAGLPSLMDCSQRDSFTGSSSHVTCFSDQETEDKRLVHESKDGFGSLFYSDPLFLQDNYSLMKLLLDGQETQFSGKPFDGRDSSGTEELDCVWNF

[10] = molecular target: T8, GST-ANAC055(1-171) (UniProt Q9LDY8)
T8 sequence: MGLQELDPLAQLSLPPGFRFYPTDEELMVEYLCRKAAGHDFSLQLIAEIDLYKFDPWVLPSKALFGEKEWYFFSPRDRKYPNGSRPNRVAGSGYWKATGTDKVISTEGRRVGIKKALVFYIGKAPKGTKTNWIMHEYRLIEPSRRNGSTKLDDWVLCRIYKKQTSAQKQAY

| Sequence | binding signal [1] [E-score] | binding signal [2] [E-score] | binding signal [3] [E-score] | binding signal [4] [E-score] | binding signal [5] [E-score] | binding signal [6] [E-score] | binding signal [7] [E-score] | binding signal [8] [E-score] | binding signal [9] [E-score] | binding signal [10] [E-score] |
| --- | --- | --- | --- | --- | --- | --- | --- | --- | --- | --- |
| GTTAAGCA | 0.408 | 0.0907 | -0.127 | 0.0417 | 0.0263 | -0.0552 |  |  |  |  |
| ACGCAAGT | 0.121 | 0.277 |  | 0.0671 | 0.0846 | 0.0386 |  |  |  |  |
| ACACGCCA | -0.075 |  |  | -0.0683 | 0.0833 | -0.143 | 0.227 | 0.313 |  |  |
| TACGGCAA | 0.0375 |  |  | 0.192 | -0.0465 | -0.0196 |  |  |  |  |
| AAGGGTAA | 0.194 |  | 0.117 | 0.444 | 0.0298 | -0.0799 |  |  | 0.134 |  |
| TACGTTAA |  | 0.0653 |  | -0.201 | 0.0234 | -0.0754 |  |  |  |  |
| ATTGCGTA | 0.0289 |  | 0.423 |  | 0.172 | -0.112 |  |  |  |  |
| ACGTATCT | 0.0824 |  | 0.393 | -0.0604 | 0.0213 | -0.01 |  |  |  |  |
| TACGCTAA |  | 0.0422 | 0.0453 | -0.0759 | 0.24 | -0.0535 | 0.19 |  |  |  |
| ACGCAATC | 0.0153 |  |  | -0.0397 | 0.0836 | -0.125 | 0.298 |  |  |  |
| AAGCGTGT | -0.0336 |  | 0.133 | -0.0697 | 0.00139 | 0.014 |  |  |  |  |
| TAACGTGA | 0.0647 |  |  | 0.0325 | 0.0616 | -0.09 |  | 0.257 |  |  |
| ACGTAATA |  |  |  |  | 0.0984 | 0.0177 |  |  |  | 0.375 |
| CTTAAGTA | 0.416 |  | 0.0567 |  | 0.112 | -0.0177 |  | 0.207 | 0.198 |  |
| ACGTTAAC | 0.00681 |  |  | -0.0371 | 0.0403 | -0.00305 |  |  |  |  |
| GTTAAGTA | 0.45 |  | 0.0291 | 0.228 | 0.186 | -0.0287 |  |  | 0.123 |  |
| CTAGGAAA | 0.188 |  | 0.0147 |  | 0.0912 | 0.0289 |  |  |  |  |
| TAAGGAAA |  | 0.00218 |  | 0.424 | 0.0254 | -0.0601 |  |  |  |  |

| Sequence | binding signal [1] [E-score] | binding signal [2] [E-score] | binding signal [3] [E-score] | binding signal [4] [E-score] | binding signal [5] [E-score] | binding signal [6] [E-score] | binding signal [7] [E-score] | binding signal [8] [E-score] | binding signal [9] [E-score] | binding signal [10] [E-score] |
| --- | --- | --- | --- | --- | --- | --- | --- | --- | --- | --- |
| AAGCAAAC |  | -0.0058 | 0.119 | 0.336 | 0.0951 | -0.0166 | 0.137 |  |  | 0.194 |
| ATACGGCA | -0.0469 |  |  | -0.039 | 0.00305 | -0.0513 |  | 0.0642 | 0.433 |  |
| AATGCCGT |  | 0.428 |  | -0.00491 | -0.0168 | -0.0386 | 0.342 |  |  | 0.391 |
| ATACGTAT | 0.12 |  | 0.445 | 0.0214 | 0.112 | -0.0155 |  |  |  |  |
| ACGTTACT | 0.0863 |  | 0.249 | 0.233 | 0.0652 | -0.00626 |  | 0.268 | 0.439 |  |
| ACGCAACA | 0.0917 |  | 0.399 | 0.0984 | 0.215 | -0.0594 |  |  | 0.484 |  |
| ACGCATCC | 0.0213 |  |  | -0.0634 | 0.166 | -0.0288 | 0.195 |  |  |  |
| AAGCAACA |  | -0.111 | -0.0279 | 0.194 | 0.103 | 0.0315 | 0.0645 |  |  |  |
| ATTCCGTG | 0.129 |  | 0.329 | -0.0124 | -0.064 | -0.0779 |  |  |  |  |
| ATAGCGTG | 0.0569 |  |  | -0.0447 | 0.0483 | -0.0469 |  | 0.332 |  |  |
| ACGCTAAC | -0.0376 |  |  | -0.0862 | 0.187 | -0.105 |  |  |  |  |
| ACACGCGA |  | -0.00339 | 0.147 | 0.018 | 0.0778 | -0.0236 | 0.0172 | 0.212 |  | 0.0222 |
| GTACGAAA | 0.184 |  |  |  | 0.123 | -0.106 |  | 0.285 |  |  |
| ACGTCATC | -0.0183 |  |  | -0.0287 | -0.0468 | 0.0494 |  |  |  |  |
| ATGTCGTG | -0.0866 |  |  | -0.0268 | -0.0567 | 0.0308 |  |  |  |  |
| CACGAAAC | 0.112 |  | 0.208 | 0.137 | 0.125 | -0.132 |  |  |  |  |
| CAAGTAAC | 0.316 |  |  |  | -0.00868 | -0.0394 |  | 0.298 |  |  |
